According to the supplement of paper PMC11417369:
± gives the standard deviation of the averaged measurements. The list shows a part of the results.

What follows are sequences tested on PfAP2-G AP2 domain (GST-tagged) (assay: gcPBM binding intensity (ln(normalized median fluorescence intensity)); higher = stronger DNA binding).
Procedure, shortened: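 GST-tagged P. falciparum DNA-binding domains, expressed in E. coli (about 25 μg on average), were applied for 1 h to an Agilent 4 × 180k array of primer-extended double-stranded 36-bp intergenic genomic probes plus negative controls. The binding buffer was 1× PBS with 1% milk, 0.2 mg/ml BSA, 0.5% salmon testes DNA and 0.03% Triton X-100. Bound protein was detected with Alexa488 anti-GST antibody and scanned at 488 nm. Binding intensity is the highest Masliner-normalised natural-log median intensity across replicate spots of either probe orientation.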
“AAAATGTCCCGTAGAAAATAAATTTATTACGCAATA [CACACA_negctrl_site1564]” was tested, and the “gcPBM binding intensity (ln)” value was 10.2 ± 0.13. In the case of “AACATATATAAATACACACACATATATATATGAAAT [CACACA_site4312]”, the “gcPBM binding intensity (ln)” value is reported as 10.1 ± 0.25. In the case of “ATTTATGTTAATAAGTGTACAATAAATTTTTTTTAT [XGTACX_site7658]”, the “gcPBM binding intensity (ln)” value is reported as 11.3 ± 0.83. In the case of “ATTAATAAATTCAATTGTACTTGTTTATACATAAAA [XGTACX_site3733]”, the “gcPBM binding intensity (ln)” value is reported as 11.1 ± 0.8. With “AAAATTAACCGTAACACACACACATATAAATATGTA [CACACA_site7791]” the “gcPBM binding intensity (ln)” value was 9.89 ± 0.014. For “TTGTTTAAGTCACGAACACACATATATCATCAATTT [CACACA_site986]”, the “gcPBM binding intensity (ln)” value was 10.11 ± 0.071. In the case of “TAAAAGTTCACCTGTACACACATATAAATATGTACA [CACACA_site6901]”, the “gcPBM binding intensity (ln)” value is reported as 11.7 ± 0.85. For “CGTTTTCTATATCATTGTACATATTCATGTGTAAAT [XGTACX_site2741]”, the “gcPBM binding intensity (ln)” value was 10.9 ± 0.65. With “AACAGACGAAGACACACACACATATATATATATATA [CACACA_site1020]” the “gcPBM binding intensity (ln)” value was 10.2 ± 0.31. In the case of “TTATTTTATTTTTGTGCACACTGATAAATTGAAAAG [CACACA_site2949]”, the “gcPBM binding intensity (ln)” value is reported as 10.7 ± 0.52. In the case of “TTATGGTGCAACATTATGCACACCGTTAAATAACTA [CACACA_site3846]”, the “gcPBM binding intensity (ln)” value is reported as 10.4 ± 0.4. With “ATTTATTTTGTTGTTGTTTTTATTTGATTGTTTTAT [CACACA_negctrl_site1275]” the “gcPBM binding intensity (ln)” value was 9.785 ± 0.007. In the case of “GTTTGAATGGCGCACTGTACACATATATACATATAG [XGTACX_site8619]”, the “gcPBM binding intensity (ln)” value is reported as 11.5 ± 0.79. “ACAAAATTATGTAGATGTACAGACATAGAAAGAGAT [XGTACX_site3096]” was tested, and the “gcPBM binding intensity (ln)” value was 11.3 ± 0.67. “ATTTATGAAAAATGTACACACATCAAATGCTTATAT [CACACA_site4068]” was tested, and the “gcPBM binding intensity (ln)” value was 11.3 ± 0.73. For “GATATTATAAAATAAAAATAAATCATTTCTATTCAT [CACACA_negctrl_site334]”, the “gcPBM binding intensity (ln)” value was 9.48 ± 0.13. “TATATATATATGTGTACACATGTCGCATTTTTTTAT [CACACA_site4648]” was tested, and the “gcPBM binding intensity (ln)” value was 11.6 ± 0.86. For “TCATGGAATATTTAAAGTACAAAAAGTGTTCTTTAC [XGTACX_site715]”, the “gcPBM binding intensity (ln)” value was 11.2 ± 0.69. With “TAGTCATATATATATGTACACACATATATATATTTA [CACACA_site8413]” the “gcPBM binding intensity (ln)” value was 11.2 ± 0.91. With “TTATGTGTATAGGTTTGTACATAAAATGATGTATAG [XGTACX_site1401]” the “gcPBM binding intensity (ln)” value was 10.9 ± 0.58. In the case of “TTTTCTTATAAATGAAGTACAAAAAAAAAATATATA [XGTACX_site1352]”, the “gcPBM binding intensity (ln)” value is reported as 11.3 ± 0.81. “TGATAGCACCTTATATGTACATATAATATATTATTA [XGTACX_site837]” was tested, and the “gcPBM binding intensity (ln)” value was 11.1 ± 0.65. For “ATATATTATGGGTGTGCACACAATATTTATATGTTC [CACACA_site2270]”, the “gcPBM binding intensity (ln)” value was 10.6 ± 0.29. For “TTATAATAAATATATAAAAAAAAAAAAAAAAAAAAA [CACACA_negctrl_site1639]”, the “gcPBM binding intensity (ln)” value was 9.43 ± 0.54. “TTTTAAATATGCCATACACACTACTCTATAATAAAT [CACACA_site6987]” was tested, and the “gcPBM binding intensity (ln)” value was 9.995 ± 0.092. For “TTATCATATAATTATTGTACTAAAAAAAAAGCGAGT [XGTACX_site3086]”, the “gcPBM binding intensity (ln)” value was 11.2 ± 0.87. For “ACATATATGGAGCTTATACACACTTTTATATTTTAA [CACACA_site3854]”, the “gcPBM binding intensity (ln)” value was 10.04 ± 0.049. With “TAATATGTTTATGGTAACATACAAAAATGTATATAT [GTGCAC_negctrl_site204]” the “gcPBM binding intensity (ln)” value was 10.2 ± 0.26. For “TATTTTTTATTTTAAATCCTCTGATATTTAATTTGT [TGCATGCA_negctrl_site84]”, the “gcPBM binding intensity (ln)” value was 9.905 ± 0.021. With “TATCCCCTTGTCCATATTAATTGTGACATCATATAT [XGTACX_negctrl_site9]” the “gcPBM binding intensity (ln)” value was 10.7 ± 0.48. With “ATGTGTATATATATGTGTACATAATTTGTGTTATTC [XGTACX_site2509]” the “gcPBM binding intensity (ln)” value was 11.4 ± 0.84. For “TGAAAAATGTAATGCTCACACATATATATATATATA [CACACA_site5213]”, the “gcPBM binding intensity (ln)” value was 10 ± 0.46. “GATTTTAATGGGTGTACACATTTATTTATATAAAGT [CACACA_site5317]” was tested, and the “gcPBM binding intensity (ln)” value was 11.7 ± 0.93. With “AAGGTATAATATATTTGTACATATACATTTTTGAAT [XGTACX_site6493]” the “gcPBM binding intensity (ln)” value was 10.9 ± 0.61. With “TTATGGTGCATGAAATCACACATTGATATATATGCT [CACACA_site5352]” the “gcPBM binding intensity (ln)” value was 9.72 ± 0.15. With “ATATATATATATATATGTACATATATATATTATATT [XGTACX_site6303]” the “gcPBM binding intensity (ln)” value was 11.2 ± 0.63. In the case of “ACATTTAAATAATATGTGCACAGCTATATTTTCTTT [GTGCAC_site9562]”, the “gcPBM binding intensity (ln)” value is reported as 10.3. With “TTATTTTTTTGGAATTCACACACAAAAAAAAAAATA [CACACA_site8650]” the “gcPBM binding intensity (ln)” value was 10.1 ± 0.4. For “AATTGAGAAGTGTGTTGTACATAATGGCACATACCT [XGTACX_site1370]”, the “gcPBM binding intensity (ln)” value was 11.2 ± 0.7. With “ACCTTAAAAATAACTGCACACAAAAATAAATACCTT [CACACA_site8902]” the “gcPBM binding intensity (ln)” value was 10.2 ± 0.23. “ACGTAAACATGTAGAAGGCATTACACAATGGTATAC [TGCATGCA_negctrl_site512]” was tested, and the “gcPBM binding intensity (ln)” value was 9.91 ± 0.18. For “TAGAATGAAAAAAAAGCATGCGGGCAAAAATTTTTA [TGCATGCA_site926]”, the “gcPBM binding intensity (ln)” value was 9.97 ± 0.19. For “GTGTCTTTTATTAAATGTACATATTCATAGATAAAA [XGTACX_site8578]”, the “gcPBM binding intensity (ln)” value was 11.3 ± 0.87. In the case of “TTTTTAATATATATCACACATATATATTTTTAATTA [CACACA_site6099]”, the “gcPBM binding intensity (ln)” value is reported as 9.49 ± 0.14.
